From PubChem BioAssay AID1508642 (National Center for Advancing Translational Sciences (NCATS), 2021)
In all, about 43,000 compounds went through this assay and about 200 (0.47%) were called active. Roughly 12% stayed inconclusive and do not appear here. Calls come from the whole dose curve; as a rule, active = well fitted cell-killing curve with a large enough effect; inconclusive = small, poorly fitted or top-dose-only effect, or effect the other way; inactive = flat fitted curve, though single readings scatter. This is one part of the list.

Experiment: Cell viability qHTS assay in S16 Pmp22-F2sN cells; note: nearly all actives have a fitted effect of over 65% in size
Settings: S16 Pmp22-F2sN Schwann cells viability, CellTiter-Glo, 24 h; series mostly up to 57.5 µM; activity change, negative = cytotoxicity: at the top concentration
Method in brief: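 S16 Pmp22-F2sN Schwann cells (500-1,000/well) in phenol-red-free DMEM with 10% FBS received 23 nL compound by pin tool for 24 h at 37 °C. Viability was then read as CellTiter-Glo luminescence after 15 min at room temperature.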
% is set by controls: 0 for no effect and ±100 for the full control effect.

SMILES	activity change, negative = cytotoxicity
Cn1nnc2c(NCc3c(F)cccc3F)ncnc21	inactive: -8.17%
COc1ccc(N2CCN(Cc3nc4c(c(=O)[nH]c(=O)n4C)n3Cc3ccccc3F)CC2)cc1	inactive: -6.98%
O=C(CC(c1cccs1)N1Cc2ccccc2C1=O)Nc1ccc(F)cc1F (configuration not stated)	inactive: -10%
COc1ccc(C(CNC(=O)Cc2ccc(Cl)cc2)N2CCOCC2)cc1 (configuration not stated)	inactive: 9.77%
O=C(CSc1nc(=O)n(CCN2CCOCC2)c2c1CCC2)Nc1cccc(Cl)c1	inactive: 13.2%
Cc1cccc(CC(=O)NC2CC(=O)N(c3ccccc3)C2)c1 (configuration not stated)	inactive: -0.944%
CCc1ccccc1NC(=O)CSc1nc2ncccc2o1	inactive: 18.2%
O=C(CCc1ccccc1)N1CCc2c([nH]c3ccccc23)C1c1ccc(Cl)cc1 (configuration not stated)	inactive: -21.2%
COC(=O)c1ccc(Cl)cc1NC(=O)NC(C)c1c(-n2cccc2)sc(C)c1C (configuration not stated)	inactive: -5.46%
O=c1c2c3c(sc2n(Cc2ccccc2F)c(=O)n1-c1ccc(Cl)cc1)CCCC3	inactive: -1.29%
COc1ccc(NC(=O)CCc2nc3cccnc3n2-c2ccccc2)cc1Cl	inactive: 7.31%
CC(C)c1ccc(C2c3c(oc4ccc(Cl)cc4c3=O)C(=O)N2CCCN2CCOCC2)cc1 (configuration not stated)	inactive: 8.56%
Cc1ccc(O)c(NC(=O)c2cc(-c3ccc(F)cc3)on2)c1	inactive: 21%
Cc1cccc(C(=O)N2CCC(N3CCN(Cc4ccc(F)cc4)C(=O)C3=O)CC2)c1	inactive: -0.817%
Cc1cc(-c2ccc(S(=O)(=O)Nc3cc(Cl)ccc3C)s2)on1	inactive: -16.4%
COCCn1c(SCC(=O)Nc2cccc(C)c2C)nc2c(oc3ccccc32)c1=O	inactive: 17.3%
CCOC(=O)c1c(C)[nH]c(CCC(=O)NCc2cccc(OC)c2)c1C	inactive: 0.789%
Cc1ccc(Cl)cc1N1CCN(C(=O)CCn2c(=O)c3cccn3c3cccnc32)CC1	inactive: 1.11%
Cc1ccc(Cn2c(CO)cnc2SCc2cccc(F)c2)cc1	inactive: 6.51%
Cc1oc2ncn(C)c(=O)c2c1C(=O)N(Cc1ccccc1)C(C)C	inactive: -0.759%
Cc1ccccc1OCCCCn1c(C2CC(=O)N(c3ccccc3Cl)C2)nc2ccccc21 (configuration not stated)	inactive: 0.294%
Nc1c(C(=O)NCCc2ccccc2)nnn1CC(=O)Nc1ccc(Cl)cc1	inactive: 6.91%
O=C(CSc1nc2c([nH]c3ccccc32)c(=O)n1-c1ccccc1)c1ccc(Cl)cc1	inactive: 3.96%
C=Cc1ccc(Cn2c(C(=O)O)c(CNCCc3ccccc3)c3ccc(C)cc32)cc1	inactive: -7.37%
CCCn1c(CCC(=O)Nc2cccc(C)c2C)nc2cccnc21	inactive: 1.47%

SMILES	activity change, negative = cytotoxicity
COc1ccc(CC(=O)Nc2ccc3nc(Nc4cccc(Cl)c4)cc(C)c3c2)cc1	inactive: -8.73%
COCCCn1c(=O)c2sccc2n2c(CCCC(=O)Nc3ccc(F)c(F)c3)nnc12	inactive: 0.602%
Cc1ccc2nc(NC(=O)c3ccc(S(=O)(=O)N4CCCc5ccccc54)cc3)sc2c1	inactive: -1%
Cc1cc(C)nc(NS(=O)(=O)c2ccc(NC(=O)c3cc(=O)c4ccc(C)c(C)c4o3)cc2)n1	inactive: 1.76%
CN1CCN(C2(CNC(=O)c3ccc([N+](=O)[O-])cc3)CCCCC2)CC1	inactive: -10.4%
Cc1ccccc1-c1nc2scc(CCNC(=O)C(=O)Nc3ccc(F)cc3F)n2n1	inactive: -18.5%
O=C(C1CCCCC1)N(Cc1cccnc1)c1nc2c(F)cc(F)cc2s1	inactive: -19%
COc1ccc(OC)c(NC(=O)c2c(NCc3ccc(OC)c(OC)c3)sc3c2CCC(C)C3)c1 (configuration not stated)	inactive: 0.521%
Nc1c(C(=O)Nc2cccc(F)c2)sc2nc(-c3cccs3)ccc12	inactive: 18.4%
CCC(Oc1ccc(F)cc1)C(=O)Nc1nc2c(s1)CCCC2 (configuration not stated)	inactive: -2.59%
CCc1ccc(-c2cc(C)no2)cc1S(=O)(=O)NCc1ccco1	inactive: -14.9%
Cc1cccc(C(=O)N2CCCCC2CCN2CCCCC2)c1 (configuration not stated)	inactive: 13.2%
O=C(NC1CCCCC1)c1ccc(Cn2c(SCc3ccccc3)nc3cccnc32)cc1	inactive: -2.98%
COc1ccc(C(=O)N2c3nc(-c4ccco4)nn3C3(CCCCC3)[C@@H]3CCCC[C@@H]32)cc1OC	inactive: 3.34%
Cc1cccc(N2CCN(C(=O)C(C)n3nc(C)n4c(cc5occc54)c3=O)CC2)c1C (configuration not stated)	inactive: 19.9%
Cc1cc(C)c(NC(=O)CN2C(=O)C3(SCC(=O)N3c3ccc(F)cc3)c3ccccc32)c(C)c1 (configuration not stated)	inactive: -26.4%
Cc1cc(C)c(NC(=O)c2c(C)oc3c2C2=NCCN2C=N3)c(C)c1	inactive: -16.5%
CCCCCCc1cc2cc(-c3nnc(-c4cccc(Cl)c4)o3)c(=O)oc2cc1O	inactive: -3.18%
Cc1ccc(NC(=O)c2oc3ccc(S(=O)(=O)N4CCCCC4)cc3c2C)c(C)c1	inactive: -29.1%
Cc1ccc(S(=O)(=O)N2CCCc3cc(NS(=O)(=O)c4ccc(F)cc4)ccc32)cc1	inactive: -16.5%
CN(C)c1ccc(CNC(=O)C2CCN(S(=O)(=O)c3ccc4c(c3)oc(=O)n4C)CC2)cc1	inactive: 5.95%
COc1cccc(NC(=O)Cn2c(=O)n(Cc3ccc(C(=O)NCc4ccc5c(c4)OCO5)cc3)c(=O)c3ccccc32)c1	inactive: -19.5%
CCc1ccc(CNC(=O)Cn2nc(-c3ccc(Cl)cc3)ccc2=O)cc1	inactive: 3.99%
COc1ccc(C2c3c(n(C)c4ccccc34)C(=O)N2CC(=O)Nc2ccc(C)cc2Cl)cc1 (configuration not stated)	inactive: -20.3%
CCN(CC)S(=O)(=O)c1ccc(-c2csc(=Nc3cccc(C(F)(F)F)c3)n2Cc2ccc3c(c2)OCO3)cc1	inactive: 15.2%

SMILES	activity change, negative = cytotoxicity
Cc1ccc(N(CC(=O)Nc2ccc(F)cc2F)S(=O)(=O)c2cccs2)cc1	inactive: -22.7%
CCC(=O)C1=C(c2ccccc2)N(C(=O)CC)n2c(nnc2-c2ccccc2)S1	inactive: 2.33%
Cc1ccc(S(=O)(=O)NCCc2nnc3ccc(SCc4ccccc4F)nn23)cc1	inactive: -18.2%
COc1ccc(CCNC(=O)c2ccc3c(c2)N(Cc2ccccc2Cl)C(=O)c2ccccc2S3)cc1OC	inactive: 1.1%
O=C(COc1ccccc1F)Nc1nnc(SCc2cc(=O)n3ccccc3n2)s1	inactive: -2.45%
Cc1ccccc1Cn1nnc2sc3c(c2c1=O)CCCC3	inactive: 4.29%
CCOC(=O)c1c(NC(=O)Nc2ccc(F)cc2)sc(C(=O)N(C)C)c1C	inactive: 3.81%
Cc1ccc(CN2c3ccccc3-c3nc(SCC(=O)NCc4ccccc4)ncc3S2(=O)=O)cc1	inactive: -6.71%
O=C(CS(=O)(=O)c1cccc2nsnc12)NCc1ccccc1Cl	inactive: 9.45%
COc1ccc(C(=O)NCCc2csc(-c3ccc(Cl)cc3)n2)cc1	inactive: 14.2%
Cn1cc(CCCC(=O)NCc2cccc(Br)c2)c2ccccc21	inactive: -28.5%
COc1ccc(-c2cccc(NS(=O)(=O)c3cc(C(F)(F)F)ccc3Cl)c2)nn1	inactive: 9.97%
CCc1nc2ccc(C(=O)NCc3ccccc3C)cc2nc1CC	inactive: -0.446%
O=c1c(NCc2cccs2)nccn1-c1ccccc1	inactive: -22.9%
CCN(CC)c1ccc(C(=O)N2CCc3c([nH]c4ccccc34)C2c2ccc(F)cc2)cc1 (configuration not stated)	inactive: -9.89%
Cc1ccc(NC(=O)c2cccc3c(=O)c4c([nH]c23)CCCC4)c(C)c1	inactive: -10.4%
CCOc1ccc(NC(=O)Nc2nnc(N3CCCCC3C)s2)cc1 (configuration not stated)	inactive: -4.81%
CCOC(=O)c1sc2ccccc2c1S(=O)(=O)Nc1ccc(OC)c(Cl)c1	inactive: -8.54%
Cc1ccc(NC(=O)Nc2nnc(SCC(=O)N(C(C)C)C(C)C)s2)cc1	inactive: 4.49%
COc1cccc(CNC(=O)c2c(C)nn(-c3ccc(F)cc3)c2-n2cccc2)c1	inactive: 1.69%
COc1ccc(C(=O)NCCSc2c[nH]c3ccccc23)cc1OC	inactive: -14.1%
Clc1ccc(CSc2ccc(-c3cccs3)nn2)cc1	inactive: -3.29%
CCC(CC)C(=O)N1c2ccccc2C(C)(c2ccccc2)CC1(C)C (configuration not stated)	inactive: -25.2%
CSc1ncc(C(=O)Nc2cc(C)cc(C)c2)c(-c2ccccc2)n1	inactive: -4.33%
COc1ccc(-n2c(=O)c3c4c(sc3n(Cc3ccc(F)cc3)c2=O)CN(C(C)=O)CC4)c(OC)c1	inactive: 31.1%

SMILES	activity change, negative = cytotoxicity
CCc1ccc2oc(-c3ccc(C)c(NC(=O)c4cc([N+](=O)[O-])ccc4N4CCOCC4)c3)nc2c1	inactive: -13.2%
CCCCc1ccc(-n2nc3ccc(NC(=O)c4cc5ccccc5o4)cc3n2)cc1	inactive: -25.4%
CCOCCCn1c(SCC(=O)Nc2ccccc2CC)nc2ccccc2c1=O	inactive: -11.5%
CCOC(=O)Cn1c(=O)oc2cc(S(=O)(=O)N3CCN(c4cccc(Cl)c4)CC3)ccc21	inactive: 1.18%
O=C(O)c1sc(Nc2ccccc2)nc1-c1ccccc1	inactive: -4.28%
CC(=O)N1CCc2c(sc3c2c(=O)n(Cc2ccccc2)c(=O)n3Cc2ccc(Cl)cc2)C1	inactive: 9.49%
Cc1cc(C)c(Cn2c(=O)n(CCC(=O)NCCc3ccccc3)c(=O)c3ccccc32)c(C)c1	inactive: 0.182%
COc1ccc(OC)c(CCNC(=O)c2c(C)oc3ncn(CC(C)C)c(=O)c23)c1	inactive: 13.2%
CN1CCN(C(CNC(=O)c2ccc(F)cc2)c2ccc3c(c2)OCO3)CC1 (configuration not stated)	inactive: -0.217%
COC(=O)c1sccc1S(=O)(=O)N(CC(=O)Nc1cc(C)ccc1C)c1ccc(C)c(C)c1	inactive: -24.8%
Cc1ccc(N2CC(NC(=O)c3ccc(S(=O)(=O)N(C)C)cc3)CC2=O)cc1C (configuration not stated)	inactive: -0.0716%
CCC(C)NC(=O)c1ccc2c(c1)sc1nc(-c3ccc(OC)cc3)cn12 (configuration not stated)	inactive: 16.9%
COc1ccccc1CNC(=O)CSc1nc(-c2ccc(OC)c(OC)c2)cc(C(F)(F)F)n1	inactive: -17%
CCOc1ccc(CCNC(=O)c2ccc3c(c2)N(Cc2ccc(F)cc2)CCS3)cc1	inactive: -1.07%
O=C(NCC(c1cccs1)S(=O)(=O)c1cccs1)c1ccc(F)c(F)c1 (configuration not stated)	inactive: 0.304%
O=C(CSc1nc2c([nH]c3ccccc32)c(=O)n1-c1cccc(Cl)c1)N1CCCC1	inactive: 6.24%
Cc1c(C)n(Cc2ccccc2)c2ccc(C(=O)NCC(C)c3ccccc3)cc12 (configuration not stated)	inactive: -16.8%
Cc1ccc(N2CCN(S(=O)(=O)c3nnc(NC(=O)c4ccccc4)s3)CC2)cc1	inactive: -9.87%
COc1ccc(N2CCN(C(=O)c3cc4c(=O)oc5ccc(C)cc5c4s3)CC2)cc1	inactive: -2.42%
CCOc1ccc(N2CC(NC(=O)c3ccc4c(c3)OCO4)CC2=O)cc1 (configuration not stated)	inactive: 2.48%
CCCCNc1nc2c(S(=O)(=O)c3ccc(C)cc3)nnn2c2ccsc12	inactive: 7.78%
CCOCCc1nnc(NC(=O)C(=O)c2cc(C)n(-c3ccc(C)c(C)c3)c2C)s1	inactive: -0.448%
